Source: the supplement of paper PMC11876631
± gives the standard deviation of the averaged measurements. Laboratory Escherichia coli strains with one amino-acid change in an essential protein, pooled on minimal glucose agar with carbenicillin or gentamicin at twice the control MIC (plus kanamycin and chloramphenicol for the plasmids), 48 h. Fold change of barcode share against drug-free plates; higher = less susceptible. Active = above 20 in both replicates (the paper's putatively resistant). '<' = one read or none on drug, '>' = one read or none on a drug-free plate. Shares are relative, so most strains fall below 1 when a few take over. Listed are strains with at least 15 reads on both drug-free plates, and hits; most hits rest on fewer reference reads. Replicate rank correlation about 0.5. Edits are read from barcodes.

Biological target: Escherichia coli (laboratory strain)
Test: barcode share on antibiotic plates over drug-free plates; higher = less susceptible
Procedure: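 A pool of E. coli strains, each edited to carry one amino-acid change in an essential protein, was grown for 48 h on minimal glucose agar with or without antibiotic; strain barcodes were sequenced; mean of two replicates.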

[1] = antibiotic: carbenicillin, 2× MIC (3.1 µg/mL)
[2] = antibiotic: gentamicin, 2× MIC (MIC 0.45 µg/mL)

B1: mraY L5W (protein)
chain: MLVWWAEHLVKYYSGFNVFSYLTFRAIVSLLTALFISLWMGPRMIAHLQKLSFGQVVRNDGPESHFSKRGTPTMGGIMILTAIVISVLLWAYPSNPYVWCVLVVLVGYGVIGFVDDYRKVVRKDTKGLIARWKYFWMSVIALGVAFALYLAGKDTPATQLVVPFFKDVMPQLGLFYILLAYFVIVGTGNAVNLTDGLDGLAIMPTVFVAGGFALVAWATGNMNFASYLHIPYLRHAGELVIVCTAIVGAGLGFLWFNTYPAQVFMGDVGSLALGGALGIIAVLLRQEFLLVIMGGVFVVETLSVILQVGSFKLRGQRIFRMAPIHHHYELKGWPEPRVIVRFWIISLMLVLIGLATLKVR
fold change of barcode share [1]: 0.394 ± 0.27 | fold change of barcode share [2]: 0.0673 ± 0.06

B2: mraY M78W (protein)
chain: MLVWLAEHLVKYYSGFNVFSYLTFRAIVSLLTALFISLWMGPRMIAHLQKLSFGQVVRNDGPESHFSKRGTPTMGGIWILTAIVISVLLWAYPSNPYVWCVLVVLVGYGVIGFVDDYRKVVRKDTKGLIARWKYFWMSVIALGVAFALYLAGKDTPATQLVVPFFKDVMPQLGLFYILLAYFVIVGTGNAVNLTDGLDGLAIMPTVFVAGGFALVAWATGNMNFASYLHIPYLRHAGELVIVCTAIVGAGLGFLWFNTYPAQVFMGDVGSLALGGALGIIAVLLRQEFLLVIMGGVFVVETLSVILQVGSFKLRGQRIFRMAPIHHHYELKGWPEPRVIVRFWIISLMLVLIGLATLKVR
fold change of barcode share [1]: 0.328 ± 0.24 | fold change of barcode share [2]: < 0.00845

B3: mraY M78A (protein)
chain: MLVWLAEHLVKYYSGFNVFSYLTFRAIVSLLTALFISLWMGPRMIAHLQKLSFGQVVRNDGPESHFSKRGTPTMGGIAILTAIVISVLLWAYPSNPYVWCVLVVLVGYGVIGFVDDYRKVVRKDTKGLIARWKYFWMSVIALGVAFALYLAGKDTPATQLVVPFFKDVMPQLGLFYILLAYFVIVGTGNAVNLTDGLDGLAIMPTVFVAGGFALVAWATGNMNFASYLHIPYLRHAGELVIVCTAIVGAGLGFLWFNTYPAQVFMGDVGSLALGGALGIIAVLLRQEFLLVIMGGVFVVETLSVILQVGSFKLRGQRIFRMAPIHHHYELKGWPEPRVIVRFWIISLMLVLIGLATLKVR
fold change of barcode share [1]: 0.339 ± 0.086 | fold change of barcode share [2]: 0.0509 ± 0.059

B4: mraY V28Q (protein)
chain: MLVWLAEHLVKYYSGFNVFSYLTFRAIQSLLTALFISLWMGPRMIAHLQKLSFGQVVRNDGPESHFSKRGTPTMGGIMILTAIVISVLLWAYPSNPYVWCVLVVLVGYGVIGFVDDYRKVVRKDTKGLIARWKYFWMSVIALGVAFALYLAGKDTPATQLVVPFFKDVMPQLGLFYILLAYFVIVGTGNAVNLTDGLDGLAIMPTVFVAGGFALVAWATGNMNFASYLHIPYLRHAGELVIVCTAIVGAGLGFLWFNTYPAQVFMGDVGSLALGGALGIIAVLLRQEFLLVIMGGVFVVETLSVILQVGSFKLRGQRIFRMAPIHHHYELKGWPEPRVIVRFWIISLMLVLIGLATLKVR
fold change of barcode share [1]: 0.227 ± 0.059 | fold change of barcode share [2]: < 0.00866

B5: mraY V28A (protein)
chain: MLVWLAEHLVKYYSGFNVFSYLTFRAIASLLTALFISLWMGPRMIAHLQKLSFGQVVRNDGPESHFSKRGTPTMGGIMILTAIVISVLLWAYPSNPYVWCVLVVLVGYGVIGFVDDYRKVVRKDTKGLIARWKYFWMSVIALGVAFALYLAGKDTPATQLVVPFFKDVMPQLGLFYILLAYFVIVGTGNAVNLTDGLDGLAIMPTVFVAGGFALVAWATGNMNFASYLHIPYLRHAGELVIVCTAIVGAGLGFLWFNTYPAQVFMGDVGSLALGGALGIIAVLLRQEFLLVIMGGVFVVETLSVILQVGSFKLRGQRIFRMAPIHHHYELKGWPEPRVIVRFWIISLMLVLIGLATLKVR
fold change of barcode share [1]: 0.368 ± 0.16 | fold change of barcode share [2]: < 0.0158

B6: mraY V28D (protein)
chain: MLVWLAEHLVKYYSGFNVFSYLTFRAIDSLLTALFISLWMGPRMIAHLQKLSFGQVVRNDGPESHFSKRGTPTMGGIMILTAIVISVLLWAYPSNPYVWCVLVVLVGYGVIGFVDDYRKVVRKDTKGLIARWKYFWMSVIALGVAFALYLAGKDTPATQLVVPFFKDVMPQLGLFYILLAYFVIVGTGNAVNLTDGLDGLAIMPTVFVAGGFALVAWATGNMNFASYLHIPYLRHAGELVIVCTAIVGAGLGFLWFNTYPAQVFMGDVGSLALGGALGIIAVLLRQEFLLVIMGGVFVVETLSVILQVGSFKLRGQRIFRMAPIHHHYELKGWPEPRVIVRFWIISLMLVLIGLATLKVR
fold change of barcode share [1]: 0.347 ± 0.22

B7: metR F37P (protein)
chain: MIEVKHLKTLQALRNCGSLAAAAATLHQTQSALSHQPSDLEQRLGFRLFVRKSQPLRFTPQGEILLQLANQVLPQISQALQACNEPQQTRLRIAIECHSCIQWLTPALENFHKNWPQVEMDFKSGVTFDPQPALQQGELDLVMTSDILPRSGLHYSPMFDYEVRLVLAPDHPLAAKTRITPEDLASETLLIYPVQRSRLDVWRHFLQPAGVSPSLKSVDNTLLLIQMVAARMGIAALPHWVVESFERQGLVVTKTLGEGLWSRLYAAVRDGEQRQPVTEAFIRSARNHACDHLPFVKSAERPTYDAPTVRPGSPARL
fold change of barcode share [1]: 1.21 ± 0.94 | fold change of barcode share [2]: 0.0709 ± 0.031
